Like-named read-outs stand apart in the source and are kept apart here. This continues a long series; more values of the same kind are listed elsewhere.
What was measured:
[1] = Distribution of 99mTc-Sn-AEDP and 85Sr in rabbits, carrier effect of AEDP (Example 4); assay type: in vivo, rabbit; details: 2 Hrs.
Protocol: (§1) Adult New Zealand albino rabbits having an average weight of 3.8 kg were utilized. Strontium-85 was employed as a standard for comparison. […] Each dosage is contained in a volume of 1 ml.
(§2) The animals were sacrificed serially from 1 to 24 hours after injection and the activities in major organs were determined by counting multiple samples from each organ in a scintillation well counter (the technetium-99m counts were corrected for the Compton contributions from the strontium-85 activity in the technetium-99m energy window). Multiple samples were counted from the tibia, femur, spine and pelvic bones; the total activity in the skeleton was estimated by assuming the whole skeleton consisted of equal proportions by weight of tibia, spine, femur and pelvis and that the skeletal mass was 10% of the body weight. The red marrow was sampled from the femur and the total marrow was assumed to be 2.2% of the total body weight. Similarly, blood volume was assumed to be 7% and the skeletal muscle 43% of the body weight. The whole liver and both kidneys were weighed and multiple samples from each were counted to measure the total activity in each organ.
In another series of experiments carried out as described in Example 2, the distribution of technetium 99m from its 99m-technetium-tin-methylene diphosphonate complex was determined in albino rabbits, again in comparison with strontium-85.
The distribution of technetium 99m from its 99m technetium-tin-1-amino-ethane-1,1-diphosphonate complex was determined as in Example 3 and compared with the distribution of strontium-85.

[2] = Localization in callous of three week-old tibial fractures in rabbits (Example 2); assay type: in vivo, albino rabbit; details: rabbits i.v.
Protocol: as §1
as §2, with “The red marrow was sampled from the femur and the total marrow was assumed to be 2.2% of the total body weight. Similarly, blood volume was assumed to be 7% and the skeletal muscle 43% of the body weight.” left out
In another series of experiments carried out as described above, localization of technetium from its tin-phosphonate complex was determined in the callous of three week-old fractures of tibia in albino rabbits, again in comparison with strontium-85. Comparative radioassay of technetium-99m administered as the pertechnetate was measured in the callous of tibial fractures in rabbits at one and four hours after administration.

[3] = rabbits, 2 Hrs.

For `[85Sr+2].[Cl-].[Cl-]` [^85 Sr, 85Sr chloride], the “Blood, % Dose/1% Body weight” value ([1]; AEDP 0.01 mg/kg) was 0.427 % Dose/1% Body weight, the “Bone Ave, % Dose/1% Body weight” value ([1]; AEDP 0.01 mg/kg) was 10.33 % Dose/1% Body weight and the “Femur, % Dose/1% Body weight” value ([1]; AEDP 0.01 mg/kg) was 10.38 % Dose/1% Body weight. The “Kidneys, % Dose/1% Body weight” value ([1]; AEDP 0.01 mg/kg) was 0.567 % Dose/1% Body weight, the “Liver, % Dose/1% Body weight” value ([1]; AEDP 0.01 mg/kg) was 0.177 % Dose/1% Body weight and the “Marrow, % Dose/1% Body weight” value ([1]; AEDP 0.01 mg/kg) was 0.211 % Dose/1% Body weight. The “Muscle, % Dose/1% Body weight” value ([1]; AEDP 0.01 mg/kg) was 0.116 % Dose/1% Body weight, the “Pelvis, % Dose/1% Body weight” value ([1]; AEDP 0.01 mg/kg) was 10.66 % Dose/1% Body weight and the “Spine, % Dose/1% Body weight” value ([1]; AEDP 0.01 mg/kg) was 8.98 % Dose/1% Body weight. For the same compound, the “Tibia, % Dose/1% Body weight” value ([1]; AEDP 0.01 mg/kg) was 11.28 % Dose/1% Body weight, the “Blood, % Dose/1% Body weight” value ([1]; AEDP 0.05 mg/kg) was 0.357 % Dose/1% Body weight and the “Bone Ave, % Dose/1% Body weight” value ([1]; AEDP 0.05 mg/kg) was 12.34 % Dose/1% Body weight. The “Femur, % Dose/1% Body weight” value ([1]; AEDP 0.05 mg/kg) was 12.62 % Dose/1% Body weight, the “Kidneys, % Dose/1% Body weight” value ([1]; AEDP 0.05 mg/kg) was 0.551 % Dose/1% Body weight and the “Liver, % Dose/1% Body weight” value ([1]; AEDP 0.05 mg/kg) was 0.134 % Dose/1% Body weight. The “Marrow, % Dose/1% Body weight” value ([1]; AEDP 0.05 mg/kg) was 0.221 % Dose/1% Body weight, the “Muscle, % Dose/1% Body weight” value ([1]; AEDP 0.05 mg/kg) was 0.118 % Dose/1% Body weight and the “Pelvis, % Dose/1% Body weight” value ([1]; AEDP 0.05 mg/kg) was 11.44 % Dose/1% Body weight. For the same compound, the “Spine, % Dose/1% Body weight” value ([1]; AEDP 0.05 mg/kg) was 11.60 % Dose/1% Body weight, the “Tibia, % Dose/1% Body weight” value ([1]; AEDP 0.05 mg/kg) was 13.69 % Dose/1% Body weight and the “Blood, % Dose/1% Body weight” value ([1]; AEDP 0.1 mg/kg) was 0.354 % Dose/1% Body weight. The “Bone Ave, % Dose/1% Body weight” value ([1]; AEDP 0.1 mg/kg) was 10.48 % Dose/1% Body weight, the “Femur, % Dose/1% Body weight” value ([1]; AEDP 0.1 mg/kg) was 10.97 % Dose/1% Body weight and the “Kidneys, % Dose/1% Body weight” value ([1]; AEDP 0.1 mg/kg) was 0.441 % Dose/1% Body weight. The “Liver, % Dose/1% Body weight” value ([1]; AEDP 0.1 mg/kg) was 0.182 % Dose/1% Body weight, the “Marrow, % Dose/1% Body weight” value ([1]; AEDP 0.1 mg/kg) was 0.166 % Dose/1% Body weight and the “Muscle, % Dose/1% Body weight” value ([1]; AEDP 0.1 mg/kg) was 0.136 % Dose/1% Body weight. The “Pelvis, % Dose/1% Body weight” value ([1]; AEDP 0.1 mg/kg) was 8.66 % Dose/1% Body weight, the “Spine, % Dose/1% Body weight” value ([1]; AEDP 0.1 mg/kg) was 10.56 % Dose/1% Body weight and the “Tibia, % Dose/1% Body weight” value ([1]; AEDP 0.1 mg/kg) was 11.71 % Dose/1% Body weight. The “Blood, % Dose/1% Body weight” value ([1]; AEDP 0.5 mg/kg) was 0.624 % Dose/1% Body weight, the “Bone Ave, % Dose/1% Body weight” value ([1]; AEDP 0.5 mg/kg) was 10.78 % Dose/1% Body weight and the “Femur, % Dose/1% Body weight” value ([1]; AEDP 0.5 mg/kg) was 10.43 % Dose/1% Body weight. The “Kidneys, % Dose/1% Body weight” value ([1]; AEDP 0.5 mg/kg) was 0.924 % Dose/1% Body weight, the “Liver, % Dose/1% Body weight” value ([1]; AEDP 0.5 mg/kg) was 0.270 % Dose/1% Body weight and the “Marrow, % Dose/1% Body weight” value ([1]; AEDP 0.5 mg/kg) was 0.207 % Dose/1% Body weight. For the same compound, the “Muscle, % Dose/1% Body weight” value ([1]; AEDP 0.5 mg/kg) was 0.151 % Dose/1% Body weight, the “Pelvis, % Dose/1% Body weight” value ([1]; AEDP 0.5 mg/kg) was 11.42 % Dose/1% Body weight and the “Spine, % Dose/1% Body weight” value ([1]; AEDP 0.5 mg/kg) was 9.87 % Dose/1% Body weight. For the same compound, the “Tibia, % Dose/1% Body weight” value ([1]; AEDP 0.5 mg/kg) was 11.37 % Dose/1% Body weight, the “Callus, % dose/1% body weight” value ([2]; 1 Hr.) was 31.2 % dose/1% body weight and the “Callus, % dose/1% body weight” value ([2]; 4 Hrs) was 37.7 % dose/1% body weight.
For “tin-1-hydroxy-ethane-1,1-diphosphonate [^99m Tc-EHDP]”, the “Ave Bone, % Dose/1%-body weight” value ([3]; EHDP 0.01 mg/kg) was 7.36 % Dose/1%-body weight, the “Muscle, % Dose/1%-body weight” value ([3]; EHDP 0.01 mg/kg) was 0.018 % Dose/1%-body weight and the “Pelvis, % Dose/1%-body weight” value ([3]; EHDP 0.01 mg/kg) was 7.57 % Dose/1%-body weight. The “Spine, % Dose/1%-body weight” value ([3]; EHDP 0.01 mg/kg) was 6.17 % Dose/1%-body weight, the “Ave Bone, % Dose/1%-body weight” value ([3]; EHDP 0.05 mg/kg) was 7.96 % Dose/1%-body weight and the “Muscle, % Dose/1%-body weight” value ([3]; EHDP 0.05 mg/kg) was 0.031 % Dose/1%-body weight. The “Pelvis, % Dose/1%-body weight” value ([3]; EHDP 0.05 mg/kg) was 8.25 % Dose/1%-body weight, the “Spine, % Dose/1%-body weight” value ([3]; EHDP 0.05 mg/kg) was 6.51 % Dose/1%-body weight and the “Ave Bone, % Dose/1%-body weight” value ([3]; EHDP 0.1 mg/kg) was 9.73 % Dose/1%-body weight. The “Muscle, % Dose/1%-body weight” value ([3]; EHDP 0.1 mg/kg) was 0.023 % Dose/1%-body weight, the “Pelvis, % Dose/1%-body weight” value ([3]; EHDP 0.1 mg/kg) was 12.10 % Dose/1%-body weight and the “Spine, % Dose/1%-body weight” value ([3]; EHDP 0.1 mg/kg) was 8.18 % Dose/1%-body weight. The “Ave Bone, % Dose/1%-body weight” value ([3]; EHDP 0.5 mg/kg) was 6.60 % Dose/1%-body weight, the “Muscle, % Dose/1%-body weight” value ([3]; EHDP 0.5 mg/kg) was 0.028 % Dose/1%-body weight and the “Pelvis, % Dose/1%-body weight” value ([3]; EHDP 0.5 mg/kg) was 7.38 % Dose/1%-body weight. For the same compound, the “Spine, % Dose/1%-body weight” value ([3]; EHDP 0.5 mg/kg) was 5.885 % Dose/1%-body weight and the “Tibia, % Dose/1%-body weight” value ([3]; EHDP 0.5 mg/kg) was 6.639 % Dose/1%-body weight.

Source: patent US4115541A (priority 1975, dated 1978)
